By IC50 is meant the dose at which the fit gives 50% viability; where the fit passes the top or lowest dose, that dose stands as a limit. AUC sums up the same curve from the lowest dose to the 256-fold higher top dose; values near 1 show little effect. For some of these results: The top dose, if marked as inferred, comes from the curve model; the source does not state it. For some of these results: An entry number marks a drug with two screens in the source, which often give different values.
Key:
Assay in all cases: Viability of human cancer cell lines after 72 h of drug (GDSC screen)
[1] = compound: C/C(O)=C(\C#N)C(=O)Nc1cc(Br)ccc1Br [LFM-A13]; settings: top dose 16 µM; top dose inferred
Protocol: (§1)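 Human cancer cell lines in 384-well plates, medium with 10% serum, drug for 72 h over a 256-fold dose range (nine 2-fold or five 4-fold steps up to the top dose). Adherent lines were fixed and stained with the nucleic acid dye Syto60, suspension lines read with resazurin; signal relative to control wells, capped at 0 and 100%. One two-parameter sigmoid per drug and line, fitted in a mixed model over all curves with the slope shared within a line.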

[2] = compound: CC(C)c1ccccc1Cc1cc(C(=O)Nc2ccc(S(=O)(=O)c3ccccc3C(C)(C)C)cc2)c(O)c(O)c1O [TW-37]; settings: top dose 5 µM
Protocol: as §1

[3] = compound: CC(O)(CS(=O)(=O)c1ccc(F)cc1)C(=O)Nc1ccc(C#N)c(C(F)(F)F)c1 [Bicalutamide]; settings: top dose inferred
Protocol: as §1

[4] = compound: CCNC(=O)c1noc(-c2cc(C(C)C)c(O)cc2O)c1-c1ccc(CN2CCOCC2)cc1 [AUY922]; settings: top dose 0.256 µM; top dose inferred
Protocol: as §1

[5] = compound: Cc1ccc(Nc2cc(-c3cccc(N4C(=O)c5ccccc5C4=O)c3)ncn2)cc1NS(C)(=O)=O [KIN001-270]; settings: top dose 20 µM; top dose inferred
Protocol: as §1

[6] = compound: NC(=O)c1cccc(-c2cc(Nc3ccc(OC(F)(F)F)cc3)ncn2)c1 [GNF-2]; settings: top dose 1.28 µM; top dose inferred
Protocol: as §1

[7] = compound: Nc1ccn([C@@H]2O[C@H](CO)[C@@H](O)C2(F)F)c(=O)n1 [Gemcitabine]; settings: top dose 1.024 µM
Protocol: as §1

[8] = compound: O=S(=O)(c1ccccc1)N(CC(F)(F)F)c1ccc(C(O)(C(F)(F)F)C(F)(F)F)cc1 [T0901317]; settings: top dose 10.24 µM; top dose inferred
Protocol: as §1

[9] = compound: S=C(NCc1ccc2c(c1)OCO2)N1CCN(c2ncnc3c2oc2ccccc23)CC1 [MP470]; settings: top dose 20 µM; top dose inferred
Protocol: as §1

[10] = top dose 1.024 µM, screen: GDSC drug entry 150
[11] = top dose 10 µM, screen: GDSC drug entry 1502

Row | Cell Line | AUC [1] | IC50 [1] [nM] | AUC [2] | IC50 [2] [nM] | AUC [3, 10] | IC50 [3, 10] [nM] | AUC [3, 11] | IC50 [3, 11] [nM] | AUC [4] | IC50 [4] [nM] | AUC [5] | IC50 [5] [nM] | AUC [6] | IC50 [6] [nM] | AUC [7] | IC50 [7] [nM] | AUC [8] | IC50 [8] [nM] | AUC [9] | IC50 [9] [nM]
1 | HOP-62 (lung adenocarcinoma, adherent) | 0.955 | > 16000 | 0.474 | 266 | 0.986 | > 1020 | 0.985 | > 10000 | 0.44 | 11 | 0.937 | > 20000 | 0.985 | > 1280 | 0.677 | 199 | 0.981 | > 10200 | 0.78 | 8190
2 | LB1047-RCC (kidney, adherent) | 0.89 | > 16000 | 0.492 | 297 | 0.938 | > 1020 | 0.975 | > 10000 | 0.614 | 34.3 | 0.973 | > 20000 | 0.977 | > 1280 | 0.167 | 5.28 | 0.973 | > 10200 | 0.895 | > 20000
3 | NCI-H1648 (lung adenocarcinoma, adherent) | 0.952 | > 16000 | 0.722 | 1400 | 0.985 | > 1020 | 0.971 | > 10000 | 0.488 | 14.8 | 0.959 | > 20000 | 0.951 | > 1280 | 0.7 | 244 | 0.982 | > 10200 | 0.889 | > 20000
4 | SNU-C2B (large intestine, adherent) | 0.936 | > 16000 | 0.47 | 252 | 0.977 | > 1020 | 0.944 | > 10000 | 0.481 | 14 | 0.966 | > 20000 | 0.979 | > 1280 | 0.872 | > 1020 | 0.975 | > 10200 | 0.921 | > 20000
5 | RS4-11 (leukaemia, suspension) | 0.941 | > 16000 | 0.459 | 243 | 0.988 | > 1020 | 0.986 | > 10000 | 0.494 | 15.5 | 0.925 | > 20000 | 0.989 | > 1280 | 0.139 | 5.47 | 0.892 | > 10200 | 0.851 | 13400
6 | NCI-H1395 (lung adenocarcinoma, adherent) | 0.971 | > 16000 | 0.616 | 725 | 0.982 | > 1020 | 0.961 | > 10000 | 0.966 | > 256 | 0.955 | > 20000 | 0.976 | > 1280 | 0.956 | > 1020 | 0.982 | > 10200 | 0.97 | > 20000
7 | HA7-RCC (kidney, adherent) | 0.937 | > 16000 | 0.444 | 216 | 0.98 | > 1020 | 0.975 | > 10000 | 0.695 | 60 | 0.935 | > 20000 | 0.966 | > 1280 | 0.16 | 5.03 | 0.984 | > 10200 | 0.906 | > 20000
8 | KALS-1 (glioma, adherent) | 0.922 | > 16000 | 0.49 | 290 | 0.957 | > 1020 | 0.975 | > 10000 | 0.5 | 16.1 | 0.97 | > 20000 | 0.969 | > 1280 | 0.405 | 32 | 0.978 | > 10200 | 0.963 | > 20000
9 | SCC-15 (head and neck, adherent) | 0.923 | > 16000 | 0.479 | 269 | 0.98 | > 1020 | 0.959 | > 10000 | 0.574 | 27.3 | 0.932 | > 20000 | 0.978 | > 1280 | 0.604 | 136 | 0.977 | > 10200 | 0.95 | > 20000
10 | KG-1 (acute myeloid leukaemia, suspension) | 0.99 | > 16000 | 0.665 | 850 | 0.99 | > 1020 | 0.977 | > 10000 | 0.685 | 49.2 | 0.939 | > 20000 | 0.985 | > 1280 | 0.433 | 42.8 | 0.945 | > 10200 | 0.699 | 4230
11 | LXF-289 (lung adenocarcinoma, adherent) | 0.967 | > 16000 | 0.39 | 157 | 0.986 | > 1020 | 0.962 | > 10000 | 0.522 | 18.3 | 0.984 | > 20000 | 0.984 | > 1280 | 0.238 | 11.3 | 0.973 | > 10200 | 0.944 | > 20000

— the supplement of paper PMC4967469
